# According to US20190241639A1 (ZHEJIANG DOER BIOLOGICS, published 2019):
# B1: GLP-2 mutant fusion protein SEQ ID NO:23 (Fc fusion)
# chain: HGDGSFSDEMNTILDNLAARDFINWLIQTKITDPSSGAPPPS[human IgG4 Fc with S228P N297A (EU numbers) omitted]
# B2: GLP-2 mutant fusion protein SEQ ID NO:26 (Fc fusion)
# chain: HGDGSFSDEMNTILDNLAARDFINWLIPSSGAPPPSGGGGS[human IgG4 Fc with S228P N297A (EU numbers) omitted]
# B3: GLP-2 mutant fusion protein SEQ ID NO:29 (Fc fusion)
# chain: HGDGSFSDEMNTILDNLAARDFINWLIQTKPSSGAPPPSGGGGSGPA[human IgG4 Fc with S228P N297A (EU numbers) omitted]
# Molecular target: GLP-2 receptor
# Assay: cell-based or functional assay
row,Binder,"EC50 (nM), luciferase reporter gene assay in GLP-2R/Luc-CHO cells [nM]"
1,B1,82.4
2,B2,81.7
3,B3,27.3
